# From the supplement of paper PMC7826260
# Some of the results follow. Each Rep nickase domain was tested in vitro on the same pool of single strands (3 µM enzyme, 1 h, 37 °C); shown is the middle of each 90-letter strand. Values are log2 of uncut reads against the no-enzyme pool; more negative means more cut, near 0 not cut, and no call is made. Shares of all reads are compared; where an enzyme cuts many sequences, the uncut ones exceed 0.
# System: T1, Rep nickase domain of maize striate mosaic virus
# T1 sequence (Rep 1-117, printed without the tag): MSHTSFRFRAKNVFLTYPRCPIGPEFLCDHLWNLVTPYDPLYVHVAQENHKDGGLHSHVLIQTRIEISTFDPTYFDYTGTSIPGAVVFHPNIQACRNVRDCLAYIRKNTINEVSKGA
# Test: uncleaved DNA left, log2 of reads against the no-enzyme library (log2 ratio); higher = less cleavage (more negative = more Rep cleavage of the k-mer); sequences stand for … in CTCGTCCG…ACCGGAGA
# Procedure: (§1)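 A pool of 90-nt single-stranded DNAs with seven random bases just before the constant AC of the nick site (name = the seven bases) was cut by 3 µM recombinant His6-SUMO-tagged Rep nickase domain (300 nM DNA, 50 mM HEPES pH 8.0, 50 mM NaCl, 1 mM MnCl2, 1 h, 37 °C, three replicates). Uncut DNA was amplified and sequenced.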
row,Sequence,uncleaved DNA left (log2)
1,TCGAATC,-0.356
2,TTCCTCG,-1.08
3,GGGGCGC,2.11
4,TTCCGGC,0.324
5,AGCTTTC,-0.428
6,ATACCAC,-0.0799
7,CCTCATG,-0.887
8,TCGCTCT,-0.396
9,TAATAAT,-4.15
10,GTGCCAC,1.74
11,CTGCCCG,-0.819
12,TGCGACT,1.62
13,GTAATCT,1.69
14,GGTCGTG,0.125
15,AGGCATT,2.1
16,GTCGGTT,1.55
17,GCGCGTT,-0.492
18,AGACCAC,1.52
19,CCGTCAA,-0.286
20,TGATGCA,-1.05

row,Sequence,uncleaved DNA left (log2)
1,CTTAAAT,-0.487
2,TACTTTA,-0.42
3,GTGGGAA,2.02
4,CTGCATA,-0.8
5,TAACCAC,-0.53
6,AGTCGGT,0.931
7,TCAAAGA,-0.894
8,GAACACA,0.959
9,TACGCCA,-0.029
10,GGGGTCG,0.822
11,CCCGAAA,-0.426
12,CCTCGTG,-0.943
13,CATCAGT,-1.24
14,CGCGTTC,-0.622
15,AGTAGGA,-0.293
16,TCCGGCA,-0.499
17,CCGCAAC,-0.668
18,ATACTGG,-0.581
19,TGGCAGA,0.804
20,ACCTTCA,-0.867

# System: T2, Rep nickase domain of porcine circovirus 2
# T2 sequence (Rep 2-116, printed without the tag): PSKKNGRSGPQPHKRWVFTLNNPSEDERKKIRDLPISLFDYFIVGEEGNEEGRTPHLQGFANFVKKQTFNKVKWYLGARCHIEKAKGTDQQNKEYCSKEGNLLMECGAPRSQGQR
# Test: as above
# Procedure: as §1
row,Sequence,uncleaved DNA left (log2)
1,TCGAATC,-0.0203
2,TTCCTCG,0.00079
3,GGGGCGC,0.175
4,TTCCGGC,0.102
5,AGCTTTC,-0.245
6,ATACCAC,-0.0877
7,CCTCATG,-0.000847
8,TCGCTCT,-0.279
9,TAATAAT,-4.37
10,GTGCCAC,0.135
11,CTGCCCG,-0.452
12,TGCGACT,0.0512
13,GTAATCT,0.0843
14,GGTCGTG,0.254
15,AGGCATT,0.239
16,GTCGGTT,0.108
17,GCGCGTT,-0.142
18,AGACCAC,0.0151
19,CCGTCAA,-0.0154
20,TGATGCA,-0.149

row,Sequence,uncleaved DNA left (log2)
1,CTTAAAT,-0.232
2,TACTTTA,-2.76
3,GTGGGAA,0.0259
4,CTGCATA,-0.0282
5,TAACCAC,-0.657
6,AGTCGGT,-1.95
7,TCAAAGA,0.0784
8,GAACACA,0.145
9,TACGCCA,-0.0282
10,GGGGTCG,0.289
11,CCCGAAA,-0.0529
12,CCTCGTG,0.198
13,CATCAGT,-0.0392
14,CGCGTTC,-0.0226
15,AGTAGGA,0.119
16,TCCGGCA,-0.111
17,CCGCAAC,0.0411
18,ATACTGG,0.0824
19,TGGCAGA,0.149
20,ACCTTCA,-0.149

# System: T3, Rep nickase domain of tomato golden mosaic virus
# T3 sequence (Rep 1-124, printed without the tag): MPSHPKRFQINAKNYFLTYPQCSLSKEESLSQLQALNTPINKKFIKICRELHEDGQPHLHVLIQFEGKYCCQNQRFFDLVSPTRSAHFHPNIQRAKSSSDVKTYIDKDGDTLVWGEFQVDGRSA
# Test: as above
# Procedure: as §1
row,Sequence,uncleaved DNA left (log2)
1,TCGAATC,-0.117
2,TTCCTCG,-0.179
3,GGGGCGC,0.0613
4,TTCCGGC,-0.0287
5,AGCTTTC,-0.188
6,ATACCAC,0.13
7,CCTCATG,-0.00689
8,TCGCTCT,0.129
9,TAATAAT,-4.09
10,GTGCCAC,0.153
11,CTGCCCG,-0.105
12,TGCGACT,0.000399
13,GTAATCT,0.0644
14,GGTCGTG,0.0624
15,AGGCATT,-0.146
16,GTCGGTT,0.155
17,GCGCGTT,-0.00653
18,AGACCAC,-0.147
19,CCGTCAA,0.0779
20,TGATGCA,-0.17

row,Sequence,uncleaved DNA left (log2)
1,CTTAAAT,0.0428
2,TACTTTA,-0.128
3,GTGGGAA,-0.0837
4,CTGCATA,-0.0467
5,TAACCAC,-0.0968
6,AGTCGGT,0.0319
7,TCAAAGA,-0.0179
8,GAACACA,0.0924
9,TACGCCA,-0.0713
10,GGGGTCG,0.121
11,CCCGAAA,-0.13
12,CCTCGTG,0.0797
13,CATCAGT,-0.119
14,CGCGTTC,-0.1
15,AGTAGGA,0.0217
16,TCCGGCA,-0.0146
17,CCGCAAC,-0.0356
18,ATACTGG,0.0194
19,TGGCAGA,0.0599
20,ACCTTCA,0.0625
